Experimental data from paper PMC9355564, “A network of cytosolic (co)chaperones promotes the biogenesis of mitochondrial signal-anchored outer membrane proteins” (eLife, 2022).
No constants are given. Whether binding was seen depends on the method and setting. For part of these data: Binding seen in cells or lysates may run through a third protein. Some binding calls cover weakened binding; strength is not graded here. For part of these data: Where a sequence is shown, tags or fusion partners need not be part of it. Values belong to the molecule of their own block, whether it stands above or below them.

Chains of the proteins cited; added tags and fusions are not shown. Residues count along the entry.
UniProt P02769, residues 25-607: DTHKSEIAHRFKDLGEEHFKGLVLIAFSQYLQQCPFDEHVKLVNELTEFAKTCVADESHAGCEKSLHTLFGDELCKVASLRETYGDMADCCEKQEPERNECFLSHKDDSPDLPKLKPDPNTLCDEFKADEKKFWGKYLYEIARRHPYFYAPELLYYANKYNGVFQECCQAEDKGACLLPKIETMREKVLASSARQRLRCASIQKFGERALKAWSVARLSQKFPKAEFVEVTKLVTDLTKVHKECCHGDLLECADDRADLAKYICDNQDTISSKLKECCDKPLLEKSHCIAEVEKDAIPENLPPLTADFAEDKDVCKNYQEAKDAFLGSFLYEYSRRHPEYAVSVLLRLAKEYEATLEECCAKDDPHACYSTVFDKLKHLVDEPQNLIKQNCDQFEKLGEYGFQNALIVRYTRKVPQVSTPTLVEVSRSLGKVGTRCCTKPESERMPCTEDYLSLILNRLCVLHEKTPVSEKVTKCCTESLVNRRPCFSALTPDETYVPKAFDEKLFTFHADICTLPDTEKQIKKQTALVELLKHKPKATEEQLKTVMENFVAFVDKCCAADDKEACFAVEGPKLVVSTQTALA

How the values were obtained:
[1] = molecular target: T1, TAMRA-labeled Mcr1 peptide, residues 1-39 (S. cerevisiae) (UniProt P36060); experiment: fluorescence polarisation; fluorescence anisotropy, 2 µM TAMRA-labeled peptide, 30 °C; single additions of 10 µM Ssa1, 30 µM Sis1, 10 µM GST-Tom70, GST, BSA or 1 mM ATP alone or in the indicated order; both purified
T1 sequence (peptide, Tetramethylrhodamine (TAMRA), position not stated): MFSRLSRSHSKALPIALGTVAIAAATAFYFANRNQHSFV

[2] = molecular target: T2, TAMRA-labeled Tom70 peptide, residues 1-32 (S. cerevisiae) (UniProt P07213); experiment: as above
T2 sequence (peptide, Tetramethylrhodamine (TAMRA), position not stated): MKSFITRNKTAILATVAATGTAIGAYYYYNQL

[3] = molecular target: GST-Tom20(35-183) (S. cerevisiae) (UniProt P35180); experiment: pull-down; purified GST, GST-Tom20 or GST-Tom70 on glutathione sepharose beads blocked with 5% BSA, mixed with cleared in vitro translation reactions (yeast extract) of HA-tagged proteins; ATP added every 30 min; 20 mM Hepes, 100 mM NaCl, 1 mM MgCl2, pH 7.25; anti-HA blot; only the target purified
[4] = molecular target: T3, GST-Tom70(46-617) (S. cerevisiae) (UniProt P07213); experiment: as above
T3 sequence: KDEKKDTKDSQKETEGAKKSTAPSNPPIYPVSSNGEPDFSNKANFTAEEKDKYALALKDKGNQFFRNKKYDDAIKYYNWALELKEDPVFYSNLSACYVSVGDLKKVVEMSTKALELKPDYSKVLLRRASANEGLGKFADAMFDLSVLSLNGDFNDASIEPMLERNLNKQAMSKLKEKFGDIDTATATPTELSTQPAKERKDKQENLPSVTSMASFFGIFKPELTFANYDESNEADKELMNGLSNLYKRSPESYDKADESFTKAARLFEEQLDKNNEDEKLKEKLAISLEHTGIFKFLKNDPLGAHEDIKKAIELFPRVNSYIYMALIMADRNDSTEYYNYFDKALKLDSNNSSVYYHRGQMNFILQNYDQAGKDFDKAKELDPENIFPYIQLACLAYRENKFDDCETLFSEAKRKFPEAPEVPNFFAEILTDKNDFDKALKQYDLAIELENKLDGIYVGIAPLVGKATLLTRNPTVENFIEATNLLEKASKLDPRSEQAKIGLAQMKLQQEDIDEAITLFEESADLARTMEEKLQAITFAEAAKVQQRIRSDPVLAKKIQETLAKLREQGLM

[5] = molecular target: T4, Tom20-3HA (full length) (S. cerevisiae), P35180; experiment: pull-down; C-terminally 3HA-tagged proteins translated in vitro in yeast extract (from WT cells, or from cells depleted of Ydj1 and Sis1), pulled down with anti-HA beads; co-purified endogenous proteins in the eluate detected by western blot; settings: remark: other sources report otherwise
T4 chain: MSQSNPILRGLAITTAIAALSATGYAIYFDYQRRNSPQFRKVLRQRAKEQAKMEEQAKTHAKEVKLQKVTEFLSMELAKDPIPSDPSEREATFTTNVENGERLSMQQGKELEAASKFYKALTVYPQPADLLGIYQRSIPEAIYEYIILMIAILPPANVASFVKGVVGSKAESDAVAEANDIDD

[6] = molecular target: T5, Tom70-3HA (full length) (S. cerevisiae), P07213; experiment: as above; settings: remark: other sources report otherwise
T5 chain: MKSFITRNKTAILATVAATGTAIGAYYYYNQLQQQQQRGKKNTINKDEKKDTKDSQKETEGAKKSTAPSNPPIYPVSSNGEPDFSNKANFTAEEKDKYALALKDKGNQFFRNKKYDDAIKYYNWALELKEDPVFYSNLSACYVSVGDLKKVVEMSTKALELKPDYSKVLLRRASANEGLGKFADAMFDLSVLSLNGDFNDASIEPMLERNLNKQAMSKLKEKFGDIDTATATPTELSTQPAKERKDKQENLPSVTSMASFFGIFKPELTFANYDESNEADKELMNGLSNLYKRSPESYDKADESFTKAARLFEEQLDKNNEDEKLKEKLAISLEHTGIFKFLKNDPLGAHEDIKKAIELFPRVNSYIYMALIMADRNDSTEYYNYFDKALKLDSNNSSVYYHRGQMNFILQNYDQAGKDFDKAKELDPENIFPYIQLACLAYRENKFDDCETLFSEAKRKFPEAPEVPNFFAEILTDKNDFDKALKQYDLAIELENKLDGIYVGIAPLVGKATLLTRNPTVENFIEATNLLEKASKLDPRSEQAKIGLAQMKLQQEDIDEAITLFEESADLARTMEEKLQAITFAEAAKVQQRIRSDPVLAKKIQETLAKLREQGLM

binding [1]: no binding (tested: 30 µM)
binding [2]: no binding (tested: 30 µM)
Molecule: bovine serum albumin (from UniProt P02769 25-607)

binding [3]: binds
binding [4]: binds
B1: Mcr1-3HA (full length) (natural protein, S. cerevisiae, UniProt P36060 1-302, looked up)
chain: MFSRLSRSHSKALPIALGTVAIAAATAFYFANRNQHSFVFNESNKVFKGDDKWIDLPISKIEEESHDTRRFTFKLPTEDSEMGLVLASALFAKFVTPKGSNVVRPYTPVSDLSQKGHFQLVVKHYEGGKMTSHLFGLKPNDTVSFKGPIMKWKWQPNQFKSITLLGAGTGINPLYQLAHHIVENPNDKTKVNLLYGNKTPQDILLRKELDALKEKYPDKFNVTYFVDDKQDDQDFDGEISFISKDFIQEHVPGPKESTHLFVCGPPPFMNAYSGEKKSPKDQGELIGILNNLGYSKDQVFKF
notes: Mcr1, S. cerevisiae, signal-anchored mitochondrial outer membrane protein (Mcr1mom is its outer membrane isoform); also called Mcr1-FL; yk-Mcr1-3HA; source: in vitro translated in yeast extract; not shown: 3HA, C-terminal, kept

binding [5]: binds
binding [6]: binds
B2: Ydj1, P25491 1-409 (protein)
chain: MVKETKFYDILGVPVTATDVEIKKAYRKCALKYHPDKNPSEEAAEKFKEASAAYEILSDPEKRDIYDQFGEDGLSGAGGAGGFPGGGFGFGDDIFSQFFGAGGAQRPRGPQRGKDIKHEISASLEELYKGRTAKLALNKQILCKECEGRGGKKGAVKKCTSCNGQGIKFVTRQMGPMIQRFQTECDVCHGTGDIIDPKDRCKSCNGKKVENERKILEVHVEPGMKDGQRIVFKGEADQAPDVIPGDVVFIVSERPHKSFKRDGDDLVYEAEIDLLTAIAGGEFALEHVSGDWLKVGIVPGEVIAPGMRKVIEGKGMPIPKYGGYGNLIIKFTIKFPENHFTSEENLKKLEEILPPRIVPAIPKKATVDECVLADFDPAKYNRTRASRGGANYDSDEEEQGGEGVQCASQ
